From the supplement of paper PMC12217912
This is one part of the list. Sequences were assembled here from the parent chain. Values near 0.05 are background.

B1: TEV protease; numbered along this chain (parent)
chain: MGESLFKGPRDYNPISSSICHLTNESDGHTTSLYGIGFGPFIITNKHLFRRNNGTLVVQSLHGVFKVKDTTTLQQHLVDGRDMIIIRMPKDFPPFPQKLKFREPQREERICLVTTNFQTKSMSSMVSDTSCTFPSGDGIFWKHWIQTKDGQCGSPLVSTRDGFIVGIHSASNFTNTNNYFTSVPKNFMELLTNQEAQQWVSGWRLNADSVLWGGHKVFMVKPEEPFQPVKEATQL

Variants of: B1
Assay: raw area under fraction-flipped curve 0-4 h after induction (AUC4h, not background-subtracted), DNA-recorder readout of cleavage of the substrate (dimensionless); higher = more cleavage of the substrate by the protease variant
Settings: temperature: 34 °C; time window: 0-4 h after rhamnose induction
Procedure: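 In vivo DNA recorder in E. coli TOP10(DE3) ΔrhaA at 34 °C. Each TEVp single-site mutant (parent TEVp 0) is paired with a single-site variant of the 7-mer TEVs (canonical ENLYFQ|S). The substrate sits between flexible linkers in a Bxb1-sfGFP-TEVs-SsrA fusion, so cleavage stabilises Bxb1 and speeds flipping of a recombination array, read by NGS. The value is the raw area under the fraction-flipped curve over 0-4 h after rhamnose induction (AUC4h), with ≥20 reads per time point. It is not background-subtracted; inactive controls average about 0.047.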
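Further: Bxb1 expression induced with 0.2% (w/v) L-rhamnose at OD600 near 0.5, cultures sampled hourly, flipped fraction per protease–substrate barcode pair counted by paired-end Illumina sequencing.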

Variant | area with substrate ENAYFQS | area with substrate ENDYFQS | area with substrate ENEYFQS | area with substrate ENIYFQS | area with substrate ENQYFQS | area with substrate ENRYFQS | area with substrate ENSYFQS | area with substrate ENVYFQS | area with substrate ENCYFQS | area with substrate ENFYFQS | area with substrate ENGYFQS | area with substrate ENKYFQS | area with substrate ENNYFQS | area with substrate ENTYFQS | area with substrate ENWYFQS | area with substrate ENYYFQS | area with substrate ENHYFQS | area with substrate ENMYFQS | area with substrate ENPYFQS
K216Q | 0.0754 | 0.0481 | 0.0618 | 0.155 | 0.0479 | 0.0506 | 0.0563 | 0.0527 | – | – | – | – | – | – | – | – | – | – | –
F226C | 0.0716 | 0.0581 | – | 0.114 | 0.0616 | 0.0353 | 0.0711 | – | 0.0805 | 0.0659 | 0.0628 | 0.0803 | 0.0647 | 0.0611 | 0.0553 | 0.0588 | – | – | –
P40N | – | 0.0647 | 0.0655 | 0.105 | 0.0646 | 0.0556 | 0.0619 | 0.0943 | 0.0597 | 0.0605 | – | 0.0554 | – | 0.0685 | 0.0562 | 0.0673 | 0.0585 | 0.0887 | –
E224V | 0.0665 | 0.0678 | 0.0605 | 0.103 | 0.0205 | 0.0477 | 0.0637 | 0.0798 | 0.0639 | 0.0711 | 0.076 | 0.0741 | 0.0512 | 0.0561 | – | – | – | – | –
E224A | 0.0622 | 0.0526 | 0.0641 | 0.1 | 0.0602 | – | 0.0644 | 0.069 | 0.0653 | 0.0657 | 0.0766 | – | 0.0637 | – | – | 0.0643 | 0.0689 | – | 0.0487
E224H | 0.0577 | – | 0.0656 | 0.0916 | 0.0559 | 0.0371 | 0.0579 | 0.0745 | 0.068 | 0.0515 | – | – | – | 0.0607 | 0.057 | – | – | – | –
E224N | 0.0644 | 0.0418 | 0.0536 | – | 0.0599 | – | 0.0573 | – | – | – | 0.0617 | – | 0.0579 | 0.0688 | 0.0703 | – | 0.0454 | 0.0718 | 0.0632
E224W | 0.062 | 0.0649 | 0.0515 | 0.101 | 0.0606 | – | 0.0579 | 0.0822 | – | 0.058 | 0.0656 | 0.0585 | 0.0575 | 0.0441 | – | – | 0.0583 | 0.104 | 0.0567
E224C | 0.0652 | 0.0738 | 0.0658 | 0.0997 | 0.0624 | 0.0573 | 0.0559 | – | 0.0651 | 0.0634 | 0.0476 | 0.0647 | 0.0455 | 0.0576 | 0.0405 | 0.0124 | – | 0.0845 | 0.0506
E224S | 0.0613 | 0.0475 | 0.0658 | 0.103 | 0.0629 | 0.0605 | 0.0661 | – | 0.0674 | – | 0.0494 | – | 0.0559 | – | 0.0449 | – | 0.0583 | 0.0761 | 0.0672
E224R | 0.0531 | 0.0385 | 0.07 | – | 0.0393 | 0.0653 | 0.0529 | 0.0388 | – | – | – | 0.0756 | 0.0629 | 0.0719 | – | – | 0.0574 | 0.0569 | –
unchanged | 0.0628 | 0.0615 | 0.061 | 0.108 | 0.0602 | 0.0587 | 0.0623 | 0.0781 | 0.0667 | 0.0618 | 0.0629 | 0.0599 | 0.0611 | 0.0629 | 0.05 | 0.0597 | 0.0609 | 0.0799 | 0.0602
